Measurements: PubChem BioAssay AID1347073 (National Center for Advancing Translational Sciences (NCATS), 2019)
The whole screen tested about 45,000 compounds, of which about 200 (0.44%) were called active. Roughly 7% stayed inconclusive and do not appear here. Calls follow the shape of the dose curve; as a rule, active = well fitted activation curve with a large enough effect; inconclusive = small, poorly fitted or top-dose-only effect; inactive = no such curve, though single readings can be large or run the other way. Some of the results follow.

experiment: qHTS of TDP-43 Inhibitors: NCGC Sytravon Library Screen; settings: yeast TDP-43 toxicity rescue, BacTiter-Glo growth, 24 h; series mostly up to 46.1 µM; growth rescue (activation): at the top concentration; also: 0% is about no effect; nearly all actives have a fitted effect of over 55% in size
In short: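 TDP-43-expressing yeast, pregrown in raffinose, seeded at OD600 0.02 in galactose medium with compound for 24 hr at 30 deg C. Growth read by BacTiter-Glo luminescence, so rescue of toxicity appears as activation.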

Structure (SMILES)	growth rescue (activation)
CCOC(=O)Cc1n[nH]c(=O)c2ccccc12	inactive: 6.07%
CCc1nc2nc(C)c(NS(=O)(=O)c3ccc(Br)s3)c(=O)n2[nH]1	inactive: -17.1%
CCOc1ccc(N/C(N)=N/c2nc(CSc3nnc(C)s3)cc(=O)[nH]2)cc1	inactive: 2.33%
O=C(NNC(=O)c1ccccc1F)c1ccco1	inactive: -13.8%
CCn1cnc2cc(NC(=O)COc3ccc(C)cc3)ccc21	inactive: 0.401%
COCCCNC(=S)NCCNc1nc2cc(C)c(C)cc2cc1C#N	inactive: 14.1%
Clc1cccc(C2CCN(Cc3nc(CC4CC4)no3)C2)c1 (stereo unspecified)	inactive: 23.7%
Nc1cc2ccccc2oc1=O	inactive: 36.5%
COc1ccc(S(=O)(=O)/N=C2\C=C(NS(=O)(=O)c3ccccc3)C(=O)c3ccccc32)cc1	inactive: 20.2%
COc1ccc(NS(=O)(=O)c2cc(NC(=O)c3cnc(C)cn3)ccc2N2CCCCC2)cc1	inactive: 12.2%
O=[N+]([O-])c1ccc(C[n+]2ccc(Cc3ccccc3)cc2)cc1	inactive: 7.94%
COc1ccccc1NC(=O)Cn1c2ccc(F)cc2c2nc3n(c(=O)c21)CCS3	inactive: 12.9%
Cc1ccc(NC(=O)C2=NNC(=O)CC2)cc1S(=O)(=O)Nc1ccc(SC(F)F)cc1	inactive: 10.6%
Cc1cc(N2C(=O)C(O)=C(C(=O)c3cc4ccccc4o3)C2c2cccs2)no1 (stereo unspecified)	inactive: -10.9%
COCC(C)n1c(C)cc(C(=O)CSc2nnc(N)s2)c1C (stereo unspecified)	inactive: 1.83%
CN1C(=O)c2oc3ccccc3c(=O)c2C1c1cccnc1 (stereo unspecified)	inactive: -66.7%
COc1cc(/C=N/NC(=O)CNc2n[nH]c(=O)[nH]c2=O)ccc1O	inactive: 6.29%
CN(C(=O)COC(=O)c1ccc(=O)n(Cc2ccccc2)n1)c1ccccc1	inactive: 1.86%
CC(C)NC(=O)C1Cc2c(-c3ccc4c(c3)OCO4)ccnc2O1 (stereo unspecified)	inactive: 13.9%
Cc1noc(C)c1S(=O)(=O)N1CCCC1C(=O)O (stereo unspecified)	inactive: 2.91%
CC(C)Cn1c(SCC(=O)N2CCCc3ccccc32)nc2ccccc2c1=O	inactive: 5.82%
Cc1cccc(N(C)C(=O)CCS(=O)(=O)c2ccc3c(c2)n(C)c(=O)c(=O)n3C)c1	inactive: 9.25%

Structure (SMILES)	growth rescue (activation)
Cc1nn(CC(=O)NCCCN2CCCC2=O)c(C)c1[N+](=O)[O-]	inactive: -49%
CNS(=O)(=O)c1cccc(C(=O)OCC(=O)c2cc(C)n(-c3ccc4c(c3)OCO4)c2C)c1	inactive: -8.14%
Cc1ccc(-c2cnc(-c3ccccc3C(=O)O)o2)cc1	inactive: -34.3%
COc1ccc(NC(=O)NC(C)c2c(-n3cccc3)sc(C)c2C)cc1OC (stereo unspecified)	inactive: 1.24%
CC(=O)c1ccccc1NC(=O)CSc1nc2ccccc2c(=O)n1CCCN1CCOCC1	inactive: 7.9%
CCn1c(SCC(=O)Nc2cccc(O)c2)nc2c1c(=O)n(C)c(=O)n2C	inactive: -13.6%
CC(=O)Nc1cccc(NC(=S)Nc2ccc(F)c(Cl)c2)c1	inactive: -3.34%
Cc1ccc(NC(=O)Cc2cc(C(=O)O)c3ccccc3n2)c(C)c1	inactive: -3.74%
CCOC(=O)C1CCCN(Cc2nc(CC3CC3)no2)C1 (stereo unspecified)	inactive: -0.587%
Cc1ccc(S(=O)(=O)NCCc2nc3ccccc3[nH]2)cc1	inactive: -1.67%
Cc1ccc(/C(=N\S(=O)(=O)c2ccc(Br)cc2)Nc2ccccc2C)cc1	inactive: 10.8%
CCOc1ccc(CCNC(=O)CN2C(=O)CCSc3ccccc32)cc1OCC	inactive: -18%
Cc1cc(C)n(C2CCCCC2OC(=O)CCc2ccccc2)n1 (stereo unspecified)	inactive: 21.6%
CC(C(=O)Nc1cccc([N+](=O)[O-])c1)N1C(=O)NC2(CCCC2)C1=O (stereo unspecified)	inactive: 16%
CN(C)CCNC(=O)c1ccccc1-c1cc2ccccc2c(=O)o1	inactive: 3.79%
CCOC(=O)C1(CCOc2ccccc2)CCN(Cc2ccc3c(c2)OCCO3)CC1	inactive: -15.4%
CC(=O)c1cccc(NC(=O)C2Cc3c(-c4cccc(C(N)=O)c4)ccnc3O2)c1 (stereo unspecified)	inactive: 5.95%
CC1=C(C(=O)OC(C)C)C(c2ccco2)NC(=O)N1 (stereo unspecified)	inactive: 10.6%
COC(=O)c1cc(CNC(=O)CCCSc2ccccc2)ccc1OC	inactive: -19.1%
CN(C)S(=O)(=O)c1cccc(NC(=O)COC(=O)[C@H](Cc2ccccc2)NC(=O)c2ccco2)c1	inactive: 20.7%
COc1cccc(-c2cnc3c(NC=O)cc(-c4ccc(N5CCN(C)CC5)cc4)cn23)c1	inactive: 17.2%
Cc1ccc(C(=O)N/C(=C\c2ccccc2)C(=O)NCc2ccncc2)cc1	inactive: 33%

Structure (SMILES)	growth rescue (activation)
COc1ccc([N+](=O)[O-])cc1N(CC(O)CN1CCCC1)S(=O)(=O)c1ccc(C)cc1 (stereo unspecified)	inactive: -0.836%
Cc1cc(C)c(C)c(S(=O)(=O)N2CCC(C(=O)OCC(=O)NC3CCS(=O)(=O)C3)CC2)c1C (stereo unspecified)	inactive: 2.8%
Cc1cccc(OCC(=O)NCC(=O)N/N=C/c2cc(Br)ccc2OCc2ccccc2)c1	inactive: 6.14%
Cc1ccc(-c2nnc(CCC(=O)N(C)Cc3nccs3)o2)s1	inactive: 9.35%
CCN(CC)S(=O)(=O)c1ccc(/C=C/C(=O)OCC(=O)NC(=O)C2COc3ccccc3O2)cc1 (stereo unspecified)	inactive: 16.6%
O=C(Oc1ccc2c(c1)O/C(=C\c1ccncc1)C2=O)c1ccccc1	inactive: -20.4%
Cc1ccc(SCC(=O)N(C)C2CCS(=O)(=O)C2)c(C)c1 (stereo unspecified)	inactive: -45.9%
O=C(c1ccco1)N1CCN(Cc2nnc(-c3cccc(Br)c3)o2)CC1	inactive: 5.54%
Cc1ccc(S(=O)(=O)/N=C2\C=C(NS(=O)(=O)c3ccccc3)C(=O)c3ccccc32)cc1	inactive: 19%
O=C(O)C(Oc1ccc2c(-c3ccccc3)cc(=O)oc2c1)c1ccccc1 (stereo unspecified)	inactive: 29.5%
CCc1ccc(/C=C(\C#N)C(=O)NC2CCS(=O)(=O)C2)cc1 (stereo unspecified)	inactive: -23.5%
COc1ccc(C(=O)CSc2nnc(C(CO)NC(=O)c3ccc(OC)cc3)n2C)cc1 (stereo unspecified)	inactive: 7.4%
COc1cc(/C=N/n2c(-c3cc(C)[nH]n3)n[nH]c2=S)ccc1O	inactive: 1.06%
CC1CC(C)CN(CCCNS(=O)(=O)c2cc(Br)cc3c2N(C(=O)C2CC2)CC3)C1 (stereo unspecified)	inactive: -2.75%
O=C(CCl)NN=C(c1ccccc1)c1ccccc1	inactive: -8.98%
O=C(Cn1c(=O)c2c3c(sc2n(Cc2ccccc2)c1=O)CCCC3)NCCO	inactive: -5.81%
Cc1ccc(O)c(NC(=O)c2cc(-c3ccco3)on2)c1	inactive: 19.7%
CNc1nc(NCCOc2ccccc2Cl)c2sccc2n1	inactive: 1.76%
COc1ccccc1NC(=O)c1ncn(-c2ccccc2)n1	inactive: 26.3%
COc1ccc(NC(=S)N2CCC(NC(=O)c3ccccc3C)CC2)cc1	inactive: 10.1%
O=C(O)c1ccnc(Cl)c1	inactive: 7.82%
O=C(CNCc1ccco1)Nc1cc(S(=O)(=O)N2CCOCC2)ccc1N1CCOCC1	inactive: 5.94%
